Measured values taken from PubChem BioAssay AID192 (DTP/NCI, 2004).
Inconclusive results and toxic doses are left out. The source holds more than one record for some entries. They are shown here; other results are not. There may be further records. Values given together are repeated measurements in other runs, samples, wells, individuals or studies. Peptide text beside a SMILES is read from it. * marks the point of attachment. Trt = c1ccc(C(c2ccccc2)(c2ccccc2)*)cc1; Cbz = O=C(OCc1ccccc1)*; Bn = c1ccc(C*)cc1; βAla = NCCC(=O)O

System: BDF1 mice, B16 melanoma ip, median survival T/C
Test: NCI In Vivo Anticancer Drug Screen. Data for tumor model B16 Melanoma (intraperitoneal) in B6D2F1 (BDF1) mice
Settings: endpoint: median survival time, higher = longer survival
Procedure: The antitumor activity of compounds was measured in mice bearing transplantable tumors. Survival or tumor size were measured and the results are expressed as the measurement made in the treated group (T) divided by the measurement made in the vehicle treated control group (C). The tumor model used in this assay is B16 Melanoma (intraperitoneal) in B6D2F1 (BDF1) mice

[1] = dose: 6.25 mg/kg/injection, schedule: Q01DX009 (ip), vehicle: Klucel (hydroxypropylcellulose) (HPC)

`COc1cc(NC(=O)CN(CCCl)CCCl)cc(OC)c1OC` was tested. Which T/C (dose: 50.0 mg/kg/injection, schedule: Q01DX009 (ip), vehicle: saline with Tween-80) did it give?
Its T/C is 109 % of control and 160 % of control.

With `CCC1(CC)OC2=C(CC(C#N)(C#N)C(C#N)(C#N)C2)O1` as the compound, how does the T/C (dose: 6.25 mg/kg/injection, schedule: Q04DX003 (ip), vehicle: Klucel (hydroxypropylcellulose) (HPC)) read?
Its T/C is 93 % of control and 175 % of control.

`COc1ccc2cc3[n+](cc2c1OC)CCc1cc2c(cc1-3)OCO2` was tested. Which T/C (dose: 6.25 mg/kg/injection, schedule: Q01DX009 (ip), vehicle: carboxymethylcellulose (CMC)) did it give?
Its T/C is 92 % of control and 150 % of control.

For `COc1cccc2c1C(=O)c1c(O)c3c(c(O)c1C2=O)C[C@@](O)(/C(C)=N\NC(=O)CO)C[C@@H]3OC1CC(N)C(O)C(C)O1` (stereo not given in full), which T/C (dose: 12.5 mg/kg/injection, schedule: Q01DX009 (ip), vehicle: saline) is on record?
Its T/C is 102 % of control and 165 % of control.

For `CCC1(O)CC2CN(CCc3c([nH]c4ccccc34)C(C(=O)OC)(c3cc4c(cc3OC)N(C)C3C(O)(C(=O)NCCO)C(O)C5(CC)C=CCN6CCC43C65)C2)C1` (stereo not given), which T/C (dose: 4.8 mg/kg/injection, schedule: Q01DX001 (ip), vehicle: water) is on record?
The T/C was 120 % of control and 156 % of control.

Which T/C (dose: 2.0 mg/kg/injection, schedule: Q04DX003 (ip), vehicle: saline with Tween-80) does the source give for `CN(C)c1ccc(/C=C/c2cc[n+](C)cc2)cc1` here?
The T/C was 90 % of control and 155 % of control.

How did the T/C (dose: 0.5 mg/kg/injection, schedule: Q01DX009 (ip), vehicle: saline with Tween-80) turn out when `CC1CC(C)CC(C)C(O)/C(C#N)=C/C=C/CC(C2CCCC2C(=O)O)OC(=O)CC(O)C(C)C1` (stereo not given) was run?
The T/C was 122 % of control and 159 % of control.

And the T/C (dose: 1.0 mg/kg/injection, schedule: Q01DX009 (ip), vehicle: saline with Tween-80)?
The T/C was 110 % of control and 153 % of control.

Which results are given for `COc1cccc2c1C(=O)c1c(O)c3c(c(O)c1C2=O)C[C@@](O)(C(C)=O)C[C@@H]3OC1CC(N)C(O)C(C)O1` (stereo not given in full)?
T/C (dose: 0.5 mg/kg/injection, schedule: Q01DX001 (ip), vehicle: water): 113 % of control and 153 % of control; T/C (dose: 2.16 mg/kg/injection, schedule: Q01DX001 (ip), vehicle: water): 90 % of control and 156 % of control; T/C (dose: 2.7 mg/kg/injection, schedule: Q01DX001 (ip), vehicle: water): 122 % of control and 150 % of control; T/C (dose: 3.6 mg/kg/injection, schedule: Q01DX001 (ip), vehicle: water): 101 % of control and 156 % of control; T/C (dose: 4.5 mg/kg/injection, schedule: Q01DX001 (ip), vehicle: water): 112 % of control and 166 % of control

For `COC(=O)C1C2CC3c4[nH]c5cc(OC)ccc5c4CCN3CC2CC(OC)C1OC` (stereo not given), which T/C (dose: 2.0 mg/kg/injection, schedule: Q01DX009 (ip), vehicle: saline) is on record?
The T/C was 93 % of control and 184 % of control.

How did the T/C (dose: 3.12 mg/kg/injection, schedule: Q01DX009 (ip), vehicle: saline with Tween-80) turn out when `CC1(C)OC2C(COC(=O)c3ccc([N+](=O)[O-])cc3)OC(NC(=O)N(CCCl)N=O)C2O1` (stereo not given) was run?
The T/C was 113 % of control and 155 % of control.

For `OCC1OC(n2cnc3cncnc32)C(O)C1O` (stereo not given), which T/C (dose: 6.25 mg/kg/injection, schedule: Q01DX009 (ip), vehicle: saline) is on record?
The T/C was 102 % of control and 160 % of control.

With `CCC(C(C)N1CC(=O)NC(=O)C1)N1CC(=O)NC(=O)C1` (stereo not given) as the compound, how does the T/C (dose: 2.0 mg/kg/injection, schedule: Q04DX003 (ip), vehicle: Klucel (hydroxypropylcellulose) (HPC)) read?
The T/C was 110 % of control and 154 % of control.

For `COC(=O)C(CSC(c1ccccc1)(c1ccccc1)c1ccccc1)NC(=O)C(CSCc1ccccc1)NC(=O)CCNC(=O)OCc1ccccc1` (stereo not given) ({Cbz-βAla}-Cys(Bn)-Cys(Trt)-OMe; configuration not given here), which T/C (dose: 200.0 mg/kg/injection, schedule: Q01DX009 (ip), vehicle: Klucel (hydroxypropylcellulose) (HPC)) is on record?
The T/C was 96 % of control and 153 % of control.

For `O=NN(CCCl)C(=O)NC1CCCCC1`, which T/C (dose: 16.0 mg/kg/injection, schedule: Q01DX001 (ip), vehicle: Klucel (hydroxypropylcellulose) (HPC)) is on record?
The T/C was 122 % of control and 175 % of control.

How did the T/C (dose: 12.5 mg/kg/injection, schedule: Q01DX009 (ip), vehicle: saline with Tween-80) turn out when `O=C1c2cccc3cc([N+](=O)[O-])cc(c23)C(=O)N1CCN1CCCC1` was run?
Its T/C is 105 % of control and 162 % of control.

For `COC1OC2COC(c3ccccc3)OC2C(O)C1N` (stereo not given), which T/C (dose: 50.0 mg/kg/injection, schedule: Q04DX003 (ip), vehicle: saline with Tween-80) is on record?
Its T/C is 91 % of control and 150 % of control.

How did the T/C [1] turn out when `CC1=CC(=Nc2ccc(N(CCCl)CCCl)cc2)C=C(C)C1=O` was run?
The T/C was 115 % of control, 117 % of control, 150 % of control.

How did the T/C [1] turn out when `CCOC(=O)C1C(=O)C(CN(CCCl)CCCl)C(=O)C(C(=O)OCC)C1c1ccc(O)cc1` (stereo not given) was run?
Its T/C is 122 % of control and 160 % of control.

What does the source list for `O=C(O)C(O)C(=O)O.[NH2-].[NH2-].[Pt+2]`?
T/C (dose: 2.0 mg/kg/injection, schedule: Q01DX009 (ip), vehicle: other): 98 % of control and 187 % of control; T/C (dose: 4.0 mg/kg/injection, schedule: Q01DX009 (ip), vehicle: other): 122 % of control, 162 % of control, 199 % of control
